Among all 150,000 compounds or so, about 540 (0.36%) showed an effect of 50% or more. Some of the results follow.

The subject of this experiment is Plasmodium falciparum. As to the kind of experiment: Primary screen in NF54 nanoGlo assay, in single point, at 2uM, 72h; a lower Z score goes with more inhibition. It is filed as functional, Erythrocyte. The note with it: timepoint 72 hour.
Turning to `C=CCNC(=O)c1ccc(N[C@H]2CC(=O)N(C(C)(C)C)C2)nc1`, the “% Inhibition” value came to 30% and the Z score is recorded as -3.4.

Regarding `C[C@@]1(C(=O)Nc2cccc(OCCn3cncn3)c2)COc2ccccc2O1`, the “% Inhibition” value is given as -13% and the Z score came out at 1.61.

Take `CCN(C[C@H]1COc2ccccc2O1)C(=O)Cc1cccc(N)c1`: the “% Inhibition” value is listed as -5% and the Z score stood at 0.57.

On to `CC[C@](C)(NC(=O)Nc1cncnc1OC)c1nc(C)cs1`, for which the “% Inhibition” value stood at 36% and the Z score is recorded as -5.14.

`COc1ccc(C2N(c3ccccc3)OC3C(=O)N(c4ccc(OC)cc4)C(=O)C32c2ccccc2)cc1` (centres undefined): the “% Inhibition” value is given as -5% and the Z score was found to be 0.49.

As to `CCc1nccn1CCC(=O)N[C@@H](C)Cc1cnccn1`, the “% Inhibition” value was -6% and the Z score was 0.99.

Turning to `Cc1cc(CC(=O)N2CCCS(=O)(=O)C[C@H]2c2ccccc2)on1`, the “% Inhibition” value is -6% and the Z score was 0.77.

In the case of `CCc1ccc(Cn2nc(CC(N)=O)nc2CCc2scnc2C)cc1`, the “% Inhibition” value is given as 4% and the Z score was -0.8.

For the compound `COc1cc(OC)cc([C@H]2CCN(C(=O)c3ccc(=O)n(C)n3)C2)c1`, the “% Inhibition” value is listed as -5% and the Z score worked out at 0.65.

Turning to `CCc1nn(C)c(Cl)c1CN1CCC2(CC1)c1nc[nH]c1CCN2C`, the “% Inhibition” value is recorded as -18% and the Z score was 1.95.

For `Cc1nc(C(=O)N2CC3CCCCC3C2)cs1` (centres undefined), the “% Inhibition” value was -14% and the Z score was 1.94.

For the compound `CNC/C=C/COc1ccccc1C(C)C`, the “% Inhibition” value is reported as -2% and the Z score came to 0.24.

Take `CCCOCC(=O)Nc1cc(-c2cccnc2)n[nH]1`: the “% Inhibition” value is 2% and the Z score was -0.29.

Turning to `C[C@]1(C(=O)Nc2ccc(S(=O)(=O)Nc3nccs3)cc2)CC1(Cl)Cl`, the “% Inhibition” value was -12% and the Z score stood at 1.71.

Take `Cc1cc(C(=O)N2C[C@@H]3C[C@H](N(C)C)CN3C(=O)[C@@H]2CC(C)C)no1`: the “% Inhibition” value is given as -11% and the Z score was 1.35.

Take `Fc1cnc(N2CCCN(c3nnc(C(F)(F)F)s3)CC2)nc1`: the “% Inhibition” value was -12% and the Z score came to 1.2.

With `COc1ccc(CNC(=O)c2ccc(OC)nn2)cc1`, the “% Inhibition” value is -9% and the Z score was determined as 1.52.

With `COc1cc(-c2ccno2)ccc1S(=O)(=O)N1CCN(c2cccc(C)c2)[C@@H](C)C1`, the “% Inhibition” value is 1% and the Z score is -0.2.

Consider `Cc1ccccc1CCCN(C)C1CCS(=O)(=O)CC1`, for which the “% Inhibition” value is on record as 12% and the Z score is recorded as -1.26.

`CN(C)c1cncc(-c2cc(Cl)cc3c2O[C@@H](CN)C3)n1`: the “% Inhibition” value is -14% and the Z score was 2.22.

For `O=C(CCc1ccc(S(=O)(=O)N2CCCC2)cc1)Nc1ccc2c(c1)OCCO2`, the “% Inhibition” value is -12% and the Z score came out at 1.58.

As for `O=C(Nc1cnccn1)c1ccc(Cl)cn1`, the “% Inhibition” value was -8% and the Z score is listed as 0.78.

Turning to `COC(=O)c1cc(C(=O)Nc2cccc(N3CCCC3=O)c2)ccn1`, the “% Inhibition” value is recorded as -11% and the Z score worked out at 1.61.

Take `CC(=O)Nc1ccc(N2C[C@@H](C(=O)Nc3ccncc3)CC2=O)cc1`: the “% Inhibition” value is recorded as -15% and the Z score worked out at 2.14.

Take `COC[C@H]1NC(=O)CC[C@H]1C(=O)Nc1cc(OC)ccc1OC`: the “% Inhibition” value is -18% and the Z score stood at 2.15.

Turning to `Cc1cc(C)n(CC[C@H]2CC(=O)Nc3c2c(-c2cccnc2)nn3C)n1`, the “% Inhibition” value is given as -18% and the Z score came out at 1.7.

For `C[C@H](NC(=O)NCC(=O)NC(C)(C)C)c1ccc(F)cc1Cl`, the “% Inhibition” value is -16% and the Z score came out at 1.72.

For `CCOC(=O)NCCC(=O)N(C)Cc1ccco1`, the “% Inhibition” value is listed as -5% and the Z score worked out at 0.52.

For `CCOC1CCN(C(=O)c2csc3ccccc23)CC1C` (centres undefined), the “% Inhibition” value is given as -12% and the Z score was found to be 1.44.

In the case of `COC(=O)c1nnc2ccc(C)cc2c1O`, the “% Inhibition” value is -4% and the Z score came out at 0.73.

As for `CCCOc1ccc(-c2ccc(C(=O)N3CCOC(C)(C)C3)cc2)cc1CO`, the “% Inhibition” value is reported as -6% and the Z score amounted to 0.93.

In the case of `COC(=O)CC[C@H]1CCCCN1c1nc2c(s1)c(C)nn2C`, the “% Inhibition” value is on record as -12% and the Z score was determined as 2.04.

Take `C#CCN[C@H](c1ccc(OC)cc1)C(F)(F)F`: the “% Inhibition” value was -8% and the Z score turned out to be 1.27.

Take `Cc1nccc(NCc2cccc(C(=O)N3CCN(c4cnccn4)CC3)c2)n1`: the “% Inhibition” value is -7% and the Z score turned out to be 0.89.

Regarding `N#Cc1ccnc(O[C@H]2CCCN(C(=O)Nc3cccs3)C2)c1`, the “% Inhibition” value is recorded as -8% and the Z score was 1.26.

For the compound `O=C(NCC1CCCCC1)C1=CCN(Cc2ccc(F)cc2)CC1`, the “% Inhibition” value was -8% and the Z score was 1.16.

For the compound `Cc1c(CNC(=O)N2CCN(C(=O)c3ccsc3)CC2)cnn1C`, the “% Inhibition” value is given as -17% and the Z score was 1.77.

On to `CC(=O)N1CC[C@H](NC(=O)CCNS(=O)(=O)c2ccc(Cl)cc2)C1`, for which the “% Inhibition” value is given as -2% and the Z score is recorded as 0.3.

Consider `COc1ccc(-n2nc3nc(NCCc4ccccn4)nc(-c4cccc(F)c4F)c3c2N)cc1`, for which the “% Inhibition” value was -6% and the Z score came to 1.07.

Turning to `CN(C)c1ccc(NC(=O)c2cc3c(s2)CCCCC3)cn1`, the “% Inhibition” value stood at 3% and the Z score was -0.49.

For `Cn1c(-c2ccccn2)nn(Cc2ccc(Cl)c(Cl)c2)c1=O`, the “% Inhibition” value turned out to be 3% and the Z score is on record as -0.4.

As for `CC(C)(C)c1cc(C[C@@H]2C[C@H](NS(C)(=O)=O)C2(C)C)no1`, the “% Inhibition” value is -2% and the Z score came out at 0.28.

With `COc1ccc(NC(C)(C)C(=O)N[C@@H](C)CN2CCCC2)cc1`, the “% Inhibition” value is recorded as -5% and the Z score was 1.02.

Take `Cn1nc(-c2cccnc2)c2c1NC(=O)C[C@@H]2c1cnc(N2CCCC2)nc1`: the “% Inhibition” value is reported as -8% and the Z score was 1.49.

Regarding `O=C1COC(=O)N1[C@H]1CCN(S(=O)(=O)c2cccs2)C1`, the “% Inhibition” value was -16% and the Z score was 1.8.

Regarding `CCC(CC)C(=O)NCc1c(C)noc1C`, the “% Inhibition” value is given as 7% and the Z score was -0.86.

Regarding `Cn1nnc(CNC[C@H](O)c2ccc(Cl)c(Cl)c2)n1`, the “% Inhibition” value was 5% and the Z score is -1.08.

For `COc1ccc(C(=O)NCC2(N3CCCC3)CCCC2)cc1C`, the “% Inhibition” value was -2% and the Z score stood at 0.26.

In the case of `Cc1nc(NCCCN2CCC[C@H](CO)C2)ccc1Cl`, the “% Inhibition” value was 2% and the Z score is reported as -0.33.

As for `Cc1ccc(C(=O)N2CCc3cc4ccccc4nc32)cc1`, the “% Inhibition” value was -10% and the Z score was 1.13.

Take `c1cc(CN2C[C@@H]3CC[C@H]2CN(c2cnccn2)C3)c2nonc2c1`: the “% Inhibition” value is recorded as -14% and the Z score came to 1.37.

Consider `Cc1nc(O)cc(CNC(=O)CO[C@H](c2ccccc2)C(F)(F)F)n1`, for which the “% Inhibition” value is -5% and the Z score is reported as 0.65.

Take `CN(Cc1ccsc1)C(=O)CNC(=O)c1ccc(F)cc1F`: the “% Inhibition” value is reported as 1% and the Z score is given as -0.1.

For the compound `Cc1ccccc1[C@H](C)NS(C)(=O)=O`, the “% Inhibition” value was -10% and the Z score was determined as 1.97.

For `CCC(=O)N1c2ccc(S(=O)(=O)N3CCCCC3)cc2C[C@H]1C(=O)NCCCc1ccccc1`, the “% Inhibition” value was -13% and the Z score came to 1.66.

As to `COc1ccccc1N(CC(F)(F)F)C(=O)Cc1ccc(C)nc1`, the “% Inhibition” value amounted to 16% and the Z score is recorded as -2.82.

As for `O=S(=O)(C1CC1)N1CCO[C@H]2COCC[C@H]21`, the “% Inhibition” value was -10% and the Z score stood at 1.98.

As for `Cc1cc(-n2nc(C)nc2-c2ccc([C@@H]3CCCN3)s2)ccn1`, the “% Inhibition” value was -13% and the Z score is on record as 1.36.

Consider `CCC(COc1ccccc1)NC(C)c1cnn(C)c1` (centres undefined), for which the “% Inhibition” value is -9% and the Z score is 0.96.

In the case of `COc1ccc(O[C@H]2COCCN(C(=O)c3cccnc3)C2)cc1`, the “% Inhibition” value is given as 16% and the Z score is given as -1.89.

Turning to `COC(=O)[C@H](Cc1ccncc1)NC(=O)c1cc(Cl)cn1C`, the “% Inhibition” value was -4% and the Z score is 0.47.

Turning to `CC(=O)c1ccc(CNC(=O)C#Cc2ccccc2)nc1C`, the “% Inhibition” value is 1% and the Z score is given as -0.21.

As for `Cc1ccoc1CNC(=O)N1CCn2c(C3CCCC3)nnc2[C@@H]1C`, the “% Inhibition” value is given as -9% and the Z score came to 1.51.

In the case of `Cc1cn(C)nc1CNc1ncccc1C#N`, the “% Inhibition” value is -4% and the Z score was 0.57.

Regarding `c1ccc(-c2nc([C@H]3CCOC3)no2)c(-c2ncc[nH]2)c1`, the “% Inhibition” value is given as -6% and the Z score is given as 0.63.

`CC(C)NC(=O)c1nc(-c2ccc3c(c2)OCO3)no1`: the “% Inhibition” value is reported as -2% and the Z score was determined as 0.37.

Take `CCC1(C(=O)NCCC2(NC(=O)OC(C)(C)C)CC2)CCC1`: the “% Inhibition” value is recorded as -13% and the Z score worked out at 1.55.

As to `O=C1COc2c(Cl)cc(-n3ccnc3-c3ccc(C#CCO)cc3)cc2N1`, the “% Inhibition” value is on record as -9% and the Z score worked out at 1.78.

As for `O=C1CN(CCOc2ccc(Cl)cc2)CCN1`, the “% Inhibition” value was -5% and the Z score stood at 0.74.

As to `C[C@H]1CN(C(=O)Cc2ccc3c(c2)CCCO3)CC(=O)N1`, the “% Inhibition” value is listed as -4% and the Z score stood at 0.69.

In the case of `COc1cc(C(=O)Nc2ccnc(C(=O)OC(C)(C)C)c2)sn1`, the “% Inhibition” value turned out to be 22% and the Z score is recorded as -2.73.

For the compound `O=C(C1CCS(=O)(=O)C1)N1CC(c2ccccc2)C(c2ncon2)C1` (centres undefined), the “% Inhibition” value is reported as -2% and the Z score stood at 0.45.

With `COc1ccc(CCNC(=O)C(C)C)cc1OC`, the “% Inhibition” value stood at 0% and the Z score worked out at 0.03.

In the case of `Cc1c(Cl)cccc1CNC(=O)CCCN1CCCCC1=O`, the “% Inhibition” value is on record as -5% and the Z score is listed as 0.48.

For `COc1ccc(C2=NO[C@@H](CNc3nc(C)ns3)C2)cc1F`, the “% Inhibition” value was -3% and the Z score amounted to 0.55.

`C[C@H]1CCN(Cc2ccsc2)CCS1(=O)=O`: the “% Inhibition” value was -1% and the Z score was found to be 0.19.

For the compound `Nc1nc(N2CCOCC2)ncc1C(=O)NCc1ccccc1`, the “% Inhibition” value was -15% and the Z score was found to be 1.7.

With `Cc1noc(C2CC2)c1NC(=O)N[C@@]1(CO)CCCc2ccccc21`, the “% Inhibition” value was -10% and the Z score came to 1.22.

For the compound `CCn1c(CC2CCN(C(=O)[C@H](C)n3cnnn3)CC2)nn(C)c1=O`, the “% Inhibition” value was -12% and the Z score is 2.35.

In the case of `CC1CCN(C[C@H]2CCCN(CCc3cccnc3)C2)CC1`, the “% Inhibition” value was -6% and the Z score is on record as 0.68.

With `O=C(NC1CCCCC1)N1CC[C@H](c2nc(CCOCc3ccccc3)no2)C1`, the “% Inhibition” value is on record as -18% and the Z score was found to be 2.32.

As for `COCc1ccc(C(=O)N2CC[C@H](N(C(=O)c3ccc(COC)cc3)C3CC3)C2)cc1`, the “% Inhibition” value is listed as 24% and the Z score is -2.74.

As for `Cc1oc(-c2ccccc2Cl)nc1CN1CCNC(=O)[C@@H]1Cc1ccccc1`, the “% Inhibition” value was -18% and the Z score was 1.92.

In the case of `O=C(N[C@H]1CCOC[C@@H]1O)c1nc2ccccc2[nH]c1=O`, the “% Inhibition” value is 9% and the Z score is listed as -1.03.

For the compound `CN1C[C@@H](C(=O)Nc2ccc3c(c2)OCO3)CC1=O`, the “% Inhibition” value was -11% and the Z score is 1.06.

Take `Cc1nc(C)n(CCCN[C@H]2CCCC(C)(C)C2)n1`: the “% Inhibition” value was 0% and the Z score is given as -0.04.

For the compound `CCC(C)C(NC(=O)Cc1cc(C#N)ccn1)C(F)(F)F` (centres undefined), the “% Inhibition” value came to 10% and the Z score is reported as -1.17.
